B1: GBRAP_80_6852 (protein)
chain: AEAALAAALAALAAVLPEAAETAKRIVELALELGVPKEVITDTLNALTELAKVDPELAKELLKELLADLEELAAEGDSEGATAVLRGYAGEALLEAEELE
B2: GBRAP_160_4033 (protein)
chain: SEKYEKLKEFAKEEFKEAKEMVEGQTAEQRAAIVDTAAGRIIMEAEELGIDDDELLDKIDKLADEAVAYILANPDLTEEEVKKLIEKMEKEVLEAIEKAE
B3: GBRAP_39_5708 (protein)
chain: DEKEELELLASYYEAVAAKEQVDSGISLEEFLAKKREEIKKAAEEDPENKAVYERLLKLMDEGDDVDKLIAAGIAKALKAGMPVEEAEAILKQVEEERKK
B4: GBRAP_128_3222 (protein)
chain: MAEEAEKKVRELLEKIKKADEEERKKLAKELAELVASQDVETAEAMRKVIEELAPELSEEDLEILMDAFEEAARATDDEISLVLTEAAIIMGQRILELEE
B5: GBRAP_128_3174 (protein)
chain: SIEEVREYTRKKMEEIKNSSPEEARKIATELFTWLLTLSLEEAEAAVEVILEELPKLSAEKLQIIADVAREYRPKASPEKAELIAEVEVEALNLELELEE
B6: GBRAP_139_3740 (protein)
chain: MPAEEIVAEAAAKARELKDDPDALADYLVERIKAVDEETAAAIVAAAMEALADLPVDKILEIVDKVLERLEEAGVSEDKRDAAEAELNGGLARHAAAEEA
B7: GBRAP_184_5200 (protein)
chain: KVLEVEVTVENLEETKEKMEEILKKAKEEKADLLLIVKLKKSTKEIIETIMEALGKIKKEGYAKNVTVELEGDLSDENIDLAFELADKAGVNLVIALPES
B8: GBRAP_128_3564 (protein)
chain: STEALVARARALLAAIKAAGPEEARALARELADLIAAADPAAREAIVETILELLPELTPEQLDILADVFRERRATADPATAEALAEIEVEALNEREEKEE
B9: GBRAP_52_6073 (protein)
chain: MEEKIEKLAEEITEAIKAGDDEKALELLEKAVKELSEEEIKKLLVLTAKKVAKLNEEEHERFVDILDEFEDILIENGISEEDALLIVGDALAALAKEVAK
B10: GBRAP_186_5367 (protein)
chain: SEEVEKKIEEIIDEAAKKGWLILGVLEVKELTEESLERIKNELEAGAEFSAEFGYKVKIIIKTTVSEEDFEKLKKEVEEYKEKLEKETGAELEVEIIHEE
B11: GBRAP_125_3100 (protein)
chain: HMEELLEDLKRIALALGFSEEEAEELARLAREGSLKQTLVALFLAEGAEEVADLVAKLTEEQAAEAVRRLAAWLDAHPDATKEEVIAKAKEIAEELLAKA
B12: GBRAP_184_5110 (protein)
chain: KVLEEEIEAENVEELREKLTEAVERAVAEKADLLVIVKIPNLTPEMARVIMEEVHRAKEAGIKNVLVLIESDNLSDEVIDTIDELARKYGITNLVLAMKE
B13: GBRAP_53_6396 (protein)
chain: AEKEIKEGLKELEALIKRVKADPTLDPKEVAKEASALFKALVAAGAPEEELVKLAKELAEAVKAKGLGVEVSTALAKAAAEAGAEEVQYVFTEAAVEDLE
B14: GBRAP_95_7038 (protein)
chain: DDDVLLAESLAEVLETAVDLGDEEAARRAALELLKALLELPKDAVKLSLSPEAVRLIIEVARENLPREEAIEALEKLAAALTDPESKALAQAALEELKAE
B15: GBRAP_128_3303 (protein)
chain: MAPEVRARARELVERIRTGDAEERRAAAEELAALFRAASLEEVEEIAEIVRAALPELSKEALLILAEVLDAALPQFSPEKRAVVADVASDALLEAEELEE
B16: GBRAP_80_6860 (protein)
chain: DEARLAAARARLKALLPEAAALIDEVVAIAKELGVPNADIADLLDALAELAEVDPELAKELLEELLEDLREEKEAGDAENALATVRGYAGEALMEAEELE
B17: GBRAP_160_4511 (protein)
chain: SETLEELFEEVEEAREEILEVIEEENVEEAIVTAAVEWGEVIMYMAELESVSDEAEDAAAKIRDELVAELKANADAPVEELKKIVEEHAERLKEELKELF
B18: GBRAP_78_6743 (protein)
chain: KAEEVIDETIETLNEALKALSSKPIEEVGDAMLHLLDASEALIEAEEEGFPLEYIEEAARHLAAAIAEIEAKGIELPAEIMAALKASLEALKALAAEKKA
B19: GBRAP_128_3335 (protein)
chain: MDEERVEEIKELAEKIIEADPEEARELAEEIAERLKELSLEEVKKAVEYILELLPKLSAEHLEILADVLEEKLPEFDPESANEVADLQVEALNLAVEKEE
B20: GBRAP_160_4749 (protein)
chain: KEEKEKLLKEVEEIFDEGIALLKESPASEAPTIIAGITGEVLMEVFSSEAASDELEDEVAKIADKAEAEAKANADAPVEVHIAILEKAKKEVLEIIKKEI
B21: GBRAP_52_6292 (protein)
chain: SEEEVEETARKIVELVKEGKLEEAIELAKKFVKENSLEEVIRLGKLLIKEIEKLTPEEAEKMLEVIEALAEELEKEFGAEEEADILEAEAAAAAYKVFQK
B22: GBRAP_160_4211 (protein)
chain: MELIEKVIEDIREATEEVKELIPKESREEVANFADVEFGSVLMEAVDAGIENDEILDTIAEAGDKIVETLLENKDASDEEIAEKLEEITEEAIERIKKIA
B23: GBRAP_52_5878 (protein)
chain: KLEEAKELLKKAIEAQKAGKEEEAEKILKEIVEKFDEETILKAVEELAKEIKGKSLEEAKAFFKTAEKLAEILLEKGGSEEVASYIEALAGAALYEVEQK
B24: GBRAP_128_3218 (protein)
chain: STEEAVERVRELLEKIKEADEETARELAEELAELILSSSLETAEAMAEEIEKLLPELTEEQLDILADAFVAAAKKDDTPVSLVLLGIAVDAGEQILEQEE
B25: GBRAP_43_5772 (protein)
chain: SKELVEGALDFALLAAESPEIDEETKVKAIIAAFDLAADEGYADKELILEVVKAAAKNLSAEELEKIRERAERIAKEHPELKEVFDEAIKILEKAIKAKK
B26: GBRAP_153_3948 (protein)
chain: SMESKEKLEKAKKLIEKIKKSEDPTEYIKELAKLLASMNLEERLEVAKEFNSLSEETVYKIFLTLATEEGFSVEELLELTTELNEEQQAAALKAIVEAQK
B27: GBRAP_95_7053 (protein)
chain: EDDRLAFEDAVEVTDAAVELGDEETARRNARRAVELFIKGGPLPFPKGISLEAKKLILEEAYKIADEEDREKLLEEILKSAETEEEKKELKEFYESLLKK
B28: GBRAP_137_3664 (protein)
chain: ATIKVDIELDGDFATITIKADTKELMEKAEDIIDAAAKKHGVAYAIHVDEENKTVTVDLYGEREKLEAFIDDVVAELAKIANVELTLTEDGKTTKKEIKK
B29: GBRAP_52_5933 (protein)
chain: MEEEIRRKVEELVELVRRGDLEGARELAREIVETWSEEELERFIEELARLAREAPLEDLPYILEAADIVAEEIERAGRDEVLADDLLARVAAAAYERLQA

In all, about 4,500 sequences were measured (“median log2 fold change of GCK-ALFA target abundance (FLAG IP / Myc IP barcode read proportion)”: median about 0.078, lowest 2% from about -0.6 on). This is one part of the list.

Chain of GABARAP, O95166 (O95166 whole entry, the tested form may be a part): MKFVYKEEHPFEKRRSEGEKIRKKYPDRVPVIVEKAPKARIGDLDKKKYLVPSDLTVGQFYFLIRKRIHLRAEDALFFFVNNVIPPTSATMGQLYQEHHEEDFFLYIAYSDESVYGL

The assay has as its target GABARAP, O95166. Briefly: median log2 fold change of GCK-ALFA target abundance (FLAG IP / Myc IP barcode read proportion) (log2 ratio); each designed protein is fused to an ALFA-tag nanobody in HEK293 cells to bring the named protein to FLAG-tagged glucokinase (GCK); Myc marks an untargeted standard; higher = target protein stabilised (more abundant). To be noted: target protein: 3xFLAG-MCP-GCK-ALFA reporter; HEK293 landing pad (RPLP). A digest of the protocol:
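Sequencing of reverse-transcribed, amplified circular RNA barcodes from anti-FLAG and anti-Myc immunoprecipitates provided the readout for an ALFA-nanobody-fused binder library recombined into HEK293 landing-pad cells. Those cells were induced with 2 μg mL^−1 doxycycline, transfected with a plasmid expressing a FLAG-tagged target and a Myc-tagged standard, and lysed after 48 h. Target abundance is the per-binder median log2 ratio of FLAG to Myc barcode read proportions. Only barcodes at a proportion of ≥10^−7 in both replicates and binders with ≥3 barcodes per replicate were kept, with a 10^−6 pseudocount added before the two replicates were pooled.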
Take B1: the “median log2 fold change” value is -0.0831.

For the molecule B2, the “median log2 fold change” value is -0.0731.

B3: the “median log2 fold change” value was determined as 0.309.

For B4, the “median log2 fold change” value is 0.00949.

In the case of B5, the “median log2 fold change” value came out at 0.161.

On to B6, for which the “median log2 fold change” value was 0.166.

As for B7, the “median log2 fold change” value was 0.142.

B8: the “median log2 fold change” value was 0.19.

Turning to B9, the “median log2 fold change” value is -0.605.

Regarding B10, the “median log2 fold change” value came to 0.118.

Take B11: the “median log2 fold change” value was 0.195.

Consider B12, for which the “median log2 fold change” value was determined as 0.199.

For the molecule B13, the “median log2 fold change” value was 0.274.

In the case of B14, the “median log2 fold change” value was determined as 0.19.

Regarding B15, the “median log2 fold change” value is 0.201.

As for B16, the “median log2 fold change” value is -0.593.

Regarding B17, the “median log2 fold change” value is -0.0636.

Take B18: the “median log2 fold change” value was -0.0804.

As to B19, the “median log2 fold change” value was -0.092.

Consider B20, for which the “median log2 fold change” value is -0.118.

Regarding B21, the “median log2 fold change” value stood at 0.102.

Consider B22, for which the “median log2 fold change” value was -0.121.

In the case of B23, the “median log2 fold change” value came out at 0.323.

Regarding B24, the “median log2 fold change” value was 0.0147.

As for B25, the “median log2 fold change” value was determined as 0.209.

As to B26, the “median log2 fold change” value came out at 0.294.

B27: the “median log2 fold change” value was 0.189.

Turning to B28, the “median log2 fold change” value was 0.0957.

For the molecule B29, the “median log2 fold change” value is -0.376.

For the origin of these results see the supplement of paper PMC12632987.
